From publication PMC8123419, “Effect of Posttranslational Modifications on the Structure and Activity of FTO Demethylase” (International Journal of Molecular Sciences, 2021) come the findings set out here.

Series [1] concerns the molecule itself. Description: SAXS; 26 uM ^BESFTO in SAX1 buffer (HEPES/MES pH 7.0, 150 mM NaCl, 2-OG, Fe2+, 0.5 mM CaCl2); low-resolution bead model (~12-20 A).
Series [2] concerns the molecule itself. In words: MST; NT-647-NHS-labelled ^BESFTO titrated with unlabelled ^BESFTO; buffers MST1 (no cofactor), MST2 (Fe2+ only) or MST3 (2-OG only); room temperature; dimer to monomers.
Series [3] deals with the molecule itself. In words: MST; NT-647-NHS-labelled FTO titrated with unlabelled FTO; MST4 buffer: 50 mM MES pH 6.1, 150 mM NaCl, 0.05% TWEEN 20, 2 mM ascorbic acid, 1 mM 2-OG, 0.5 mM Fe2+ (holo); room temperature; dimer to monomers.

B1: FTO protein expressed in baculovirus expression system (^BESFTO), N-terminally His-tagged human FTO (enzyme)
chain: not shown
modifications: phosphoserine at S184, S256 and S260, partial (extent estimated at 3% for S184, 37% for S256, 19% for S260)
notes: carries a spontaneous S246G replacement; A mixture of forms with zero (dominant) to three phosphoserines; In MST one copy was labelled on lysines with NT-647-NHS and titrated with unlabelled protein; also called ^BSEFTO; source: Sf21 insect cells, recombinant baculovirus, purified (Ni-charged resin, size-exclusion chromatography); not shown: His tag, N-terminal, kept
A word on the stoichiometry N: it is a count of units in the complex or per binding partner. In general, Kd refers to a measure of binding affinity in units of concentration. A high value points to weaker binding. For B1, the “stoichiometry N” value in series [1] turned out to be 2. In addition, the results for the dissociation constant (Kd) in series [2] and in series [3] were 0.34 µM and 1.99 µM, respectively.
